# From patent US8129380B2, “Phthalazinone derivatives” (AstraZeneca AB, priority 2008, dated 2012)
# Molecular target: Mammalian PARP, isolated from Hela cell nuclear extract (Homo sapiens, UniProt P09874)
# Experiment: PARP inhibitory action (FlashPlate 3H-NAD assay)
# Format: biochemical
# Conditions: 30° C., NAD 5 μM
# Method: In order to assess the inhibitory action of the compounds, the following assay was used to determine IC50 values.
# The total assay volume per well was 40 μl.
# After 10 minutes incubation at 30° C. the reactions were initiated by the addition of a 10 μl reaction mixture, containing NAD (5 μM), ^3H-NAD and 30 mer double stranded DNA-oligos. Designated positive and negative reaction wells were done in combination with compound wells (unknowns) in order to calculate % enzyme activities. The plates were then shaken for 2 minutes and incubated at 30° C. for 45 minutes.
# Following the incubation, the reactions were quenched by the addition of 50 μl 30% acetic acid to each well. The plates were then shaken for 1 hour at room temperature.
# The plates were transferred to a TopCount NXT (TRADE MARK) (Packard, UK) for scintillation counting. Values recorded are counts per minute (cpm) following a 30 second counting of each well.
# The % enzyme activity for each compound is then calculated using the following equation: […]
# IC50 values (the concentration at which 50% of the enzyme activity is inhibited) were calculated, which are determined over a range of different concentrations, normally from 10 μM down to 0.001 μM. Such IC50 values are used as comparative values to identify increased compound potencies.
# Chain of UniProt P09874 (P09874 whole entry): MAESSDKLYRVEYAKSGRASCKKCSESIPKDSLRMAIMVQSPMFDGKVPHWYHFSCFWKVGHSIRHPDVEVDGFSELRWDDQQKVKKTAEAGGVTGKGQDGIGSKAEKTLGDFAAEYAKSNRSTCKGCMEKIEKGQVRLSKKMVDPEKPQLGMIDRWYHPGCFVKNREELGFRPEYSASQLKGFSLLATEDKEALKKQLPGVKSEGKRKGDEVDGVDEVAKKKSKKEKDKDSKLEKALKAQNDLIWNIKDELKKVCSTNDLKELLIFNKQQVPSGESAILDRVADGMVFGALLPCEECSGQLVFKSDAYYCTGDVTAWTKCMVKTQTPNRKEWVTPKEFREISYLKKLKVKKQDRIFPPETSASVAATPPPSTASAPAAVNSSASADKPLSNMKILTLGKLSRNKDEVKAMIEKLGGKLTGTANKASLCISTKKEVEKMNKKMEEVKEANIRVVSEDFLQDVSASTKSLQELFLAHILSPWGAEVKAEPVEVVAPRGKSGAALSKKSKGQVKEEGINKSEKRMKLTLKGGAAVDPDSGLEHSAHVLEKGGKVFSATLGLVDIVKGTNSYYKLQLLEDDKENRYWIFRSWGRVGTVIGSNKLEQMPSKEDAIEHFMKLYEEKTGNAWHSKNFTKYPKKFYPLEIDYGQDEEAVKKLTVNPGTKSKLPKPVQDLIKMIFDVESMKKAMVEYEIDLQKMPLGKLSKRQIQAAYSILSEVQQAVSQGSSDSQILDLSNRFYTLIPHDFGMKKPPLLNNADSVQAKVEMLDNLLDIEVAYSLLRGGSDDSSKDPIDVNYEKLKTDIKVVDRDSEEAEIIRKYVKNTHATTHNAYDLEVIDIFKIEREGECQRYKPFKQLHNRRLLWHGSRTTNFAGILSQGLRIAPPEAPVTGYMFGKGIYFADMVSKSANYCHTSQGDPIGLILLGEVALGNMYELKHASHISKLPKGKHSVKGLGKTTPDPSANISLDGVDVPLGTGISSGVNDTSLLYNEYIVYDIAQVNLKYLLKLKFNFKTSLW
row,Structure (SMILES),IC50
1,"COC1CCN(C(=O)c2cc(Cc3n[nH]c(=O)c4cc(Cl)ccc34)ccc2F)CC1 [Compound 69, 7-chloro-4-(4-fluoro-3-(4-methoxypiperidine-1-carbonyl)benzyl)phthalazin-1(2H)-one]",8 nM
2,"CCCOC1CCN(C(=O)c2cc(Cc3n[nH]c(=O)c4ccccc34)ccc2F)CC1 [Compound 8c, 4-[[4-fluoro-3-(4-propoxypiperidine-1-carbonyl)phenyl]methyl]-2H-phthalazin-1-one]",5 nM
3,"O=C(c1cc(Cc2n[nH]c(=O)c3ccccc23)ccc1F)N1CCC(OC2CCC2)CC1 [Compound 15, 4-(3-(4-cyclobutoxypiperidine-1-carbonyl)-4-fluorobenzyl)phthalazin-1(2H)-one]",10 nM
4,O=C(c1cc(Cc2n[nH]c(=O)c3ccccc23)ccc1F)N1CCC(Oc2ccc(F)cc2)CC1 [Compound 2c],4 nM
5,"O=C(c1cc(Cc2n[nH]c(=O)c3ccccc23)ccc1F)N1CCC(OC(CF)CF)CC1 [Compound 29, 4-(3-(4-(1,3-difluoropropan-2-yloxy)piperidine-1-carbonyl)-4-fluorobenzyl)phthalazin-1(2H)-one]",3 nM
6,N#Cc1ccc(OC2CCN(C(=O)c3cc(Cc4n[nH]c(=O)c5ccccc45)ccc3F)CC2)nc1 [Compound 26c],3 nM
7,COC1CCN(C(=O)c2cc(Cc3n[nH]c(=O)c4ccccc34)ccn2)CC1 [Compound 6c],16 nM
8,"COCCOC1CCN(C(=O)c2cc(Cc3n[nH]c(=O)c4ccccc34)ccc2F)CC1 [Compound 7, 4-(4-fluoro-3-(4-(2-methoxyethoxy)piperidine-1-carbonyl)benzyl)phthalazin-1(2H)-one]",8 nM
9,"CCOC1CCN(C(=O)c2cc(Cc3n[nH]c(=O)c4c(C)n(C)c(C)c34)ccc2F)CC1 [Compound 56, 4-(3-(4-ethoxypiperidine-1-carbonyl)-4-fluorobenzyl)-5,6,7-trimethyl-2,6-dihydro-1H-pyrrolo[3,4-d]pyridazin-1-one]",14 nM
10,"O=C(c1cc(Cc2n[nH]c(=O)c3ccccc23)ccc1F)N1CCC(OC(F)F)CC1 [Compound 19, 4-(3-(4-(difluoromethoxy)piperidine-1-carbonyl)-4-fluorobenzyl)phthalazin-1(2H)-one]",5 nM
11,"O=C(c1cc(Cc2n[nH]c(=O)c3ccccc23)ccc1F)N1CCC(OC2CCCC2)CC1 [Compound 36, 4-(3-(4-(cyclopentyloxy)piperidine-1-carbonyl)-4-fluorobenzyl)phthalazin-1(2H)-one]",4 nM
12,NC(=O)c1ccnc(OC2CCN(C(=O)c3cc(Cc4n[nH]c(=O)c5ccccc45)ccc3F)CC2)c1 [Compound 26g],7 nM
13,"CC(C)(C)OC1CCN(C(=O)c2cccc(Cc3n[nH]c(=O)c4ccccc34)c2)CC1 [Compound 71, 4-[[3-[4-[(2-methylpropan-2-yl)oxy]piperidine-1-carbonyl]phenyl]methyl]-2H-phthalazin-1-one]",9 nM
14,O=C(c1cc(Cc2n[nH]c(=O)c3ccccc23)ccn1)N1CCC(Oc2ccccc2)CC1 [Compound 6d],7 nM
15,CC(C)COC1CCN(C(=O)c2cc(Cc3n[nH]c(=O)c4ccccc34)ccc2F)CC1 [Compound 2h],4 nM

# The next lines start with the values.
row,IC50,Structure (SMILES)
1,479 nM,"COC1CCN(C(=O)c2cc(Cc3n[nH]c(=O)c4c(N)cccc34)ccc2F)CC1 [Compound 35a, 8-amino-4-(4-fluoro-3-(4-methoxypiperidine-1-carbonyl)benzyl)phthalazin-1(2H)-one]"
2,21 nM,"COC1CCN(C(=O)c2cccc(Cc3n[nH]c(=O)c4cccc(Cl)c34)c2)CC1 [Compound 119a, 5-chloro-4-(3-(4-methoxypiperidine-1-carbonyl)benzyl)phthalazin-1(2H)-one]"
3,4 nM,"CCOC1CCN(C(=O)c2cc(F)cc(Cc3n[nH]c(=O)c4cccc(Cl)c34)c2)CC1 [Compound 129a, 5-chloro-4-(3-(4-ethoxypiperidine-1-carbonyl)-5-fluorobenzyl)phthalazin-1(2H)-one]"
4,13 nM,"CCOC1CCN(C(=O)c2cccc(Cc3n[nH]c(=O)c4cccc(Cl)c34)c2)CC1 [Compound 119b, 5-chloro-4-(3-(4-ethoxypiperidine-1-carbonyl)benzyl)phthalazin-1(2H)-one]"
5,677 nM,O=C(c1cc(Cc2n[nH]c(=O)c3ccccc23)ccc1F)N1CCC(Oc2cccc(F)n2)CC1 [Compound 72b]
